Source: PubChem BioAssay AID228 (DTP/NCI, 2004)
Results filed as inconclusive are left out. For part of its entries the source gives two or more results. The other results are left out here. There may be further records. Results that share an entry are repeats (runs, samples, wells, individuals or studies).

System: BDF1 mice, Friend leukemia sc, tumor weight T/C
Test: NCI In Vivo Anticancer Drug Screen. Data for tumor model Friend Virus Leukemia (Solid) (subcutaneous) in B6D2F1 (BDF1) mice
Details: endpoint: mean tumor weight, higher = larger tumour
Procedure: The antitumor activity of compounds was measured in mice bearing transplantable tumors. Survival or tumor size were measured and the results are expressed as the measurement made in the treated group (T) divided by the measurement made in the vehicle treated control group (C). The tumor model used in this assay is Friend Virus Leukemia (Solid) (subcutaneous) in B6D2F1 (BDF1) mice

CN(Cc1cnc2nc(N)nc(N)c2n1)c1ccc(C(=O)N[C@@H](CCC(=O)O)C(=O)O)cc1
T/C (dose: 0.26 mg/kg/injection, schedule: Q01DX011 (ip), vehicle: carboxymethylcellulose (CMC)): 65 % of control and 116 % of control | T/C (dose: 0.37 mg/kg/injection, schedule: Q01DX011 (ip), vehicle: carboxymethylcellulose (CMC)): 40 % of control, 84 % of control, 89 % of control | T/C (dose: 0.52 mg/kg/injection, schedule: Q01DX011 (ip), vehicle: carboxymethylcellulose (CMC)): 61 % of control and 164 % of control | T/C (dose: 1.05 mg/kg/injection, schedule: Q01DX011 (ip), vehicle: carboxymethylcellulose (CMC)): 43 % of control and 116 % of control | T/C (dose: 3.0 mg/kg/injection, schedule: Q01DX011 (ip), vehicle: saline): 9 % of control and 48 % of control

C[C@@H]1C[C@@H]([C@H](O)CC2CC(=O)NC(=O)C2)C(=O)[C@@H](C)C1
T/C (dose: 8.7 mg/kg/injection, schedule: Q01DX011 (ip), vehicle: carboxymethylcellulose (CMC)): 112 % of control and 161 % of control | T/C (dose: 17.5 mg/kg/injection, schedule: Q01DX011 (ip), vehicle: carboxymethylcellulose (CMC)): 116 % of control and 161 % of control | T/C (dose: 35.0 mg/kg/injection, schedule: Q01DX011 (ip), vehicle: carboxymethylcellulose (CMC)): 46 % of control and 102 % of control | T/C (dose: 40.0 mg/kg/injection, schedule: Q01DX011 (ip), vehicle: carboxymethylcellulose (CMC)): 19 % of control, 66 % of control, 76 % of control

O=C(O)CCCc1ccc(N(CCCl)CCCl)cc1
T/C (dose: 3.75 mg/kg/injection, schedule: Q01DX011 (ip), vehicle: carboxymethylcellulose (CMC)): 63 % of control and 107 % of control | T/C (dose: 15.0 mg/kg/injection, schedule: Q01DX011 (ip), vehicle: carboxymethylcellulose (CMC)): 20 % of control and 48 % of control

CO[C@@]12[C@H](COC(N)=O)C3=C(C(=O)C(C)=C(N)C3=O)N1C[C@@H]1N[C@@H]12
T/C (dose: 1.0 mg/kg/injection, schedule: Q01DX011 (ip), vehicle: carboxymethylcellulose (CMC)): 18 % of control, 67 % of control, 161 % of control | T/C (dose: 2.0 mg/kg/injection, schedule: Q01DX011 (ip), vehicle: carboxymethylcellulose (CMC)): 2 % of control, 22 % of control, 84 % of control

O=S(=O)(O)c1cccnc1
T/C (dose: 19.5 mg/kg/injection, schedule: Q01DX011 (ip), vehicle: carboxymethylcellulose (CMC)): 96 % of control and 157 % of control | T/C (dose: 78.0 mg/kg/injection, schedule: Q01DX011 (ip), vehicle: carboxymethylcellulose (CMC)): 58 % of control and 108 % of control

NC(=O)/C=C/C(=O)O (tested in a mixture with another compound)
T/C (dose: 31.0 mg/kg/injection, schedule: Q#A X022 (ip), vehicle: carboxymethylcellulose (CMC)): 23 % of control and 55 % of control

CNS(=O)(=O)c1ncnc2nc[nH]c12
T/C (dose: 47.0 mg/kg/injection, schedule: Q01DX011 (ip), vehicle: carboxymethylcellulose (CMC)): 40 % of control and 116 % of control

O=P1(N(CCCl)CCCl)NCCCO1 (stereo not drawn)
T/C (dose: 25.0 mg/kg/injection, schedule: Q01DX011 (ip), vehicle: carboxymethylcellulose (CMC)): 11 % of control, 33 % of control, 51 % of control
